Experimental data published in PubChem BioAssay AID602310 (National Center for Advancing Translational Sciences (NCATS), 2012).
Out of some 410,000 compounds screened, about 310 (0.076%) were called active. The inconclusive results got no clear call from the source; some entries with a clear call stand among them for comparison. Calls follow the shape of the dose curve; as a rule, active = well fitted curve in the direction sought with a large enough effect; inconclusive = small, poorly fitted or top-dose-only effect; inactive = flat fitted curve, though single readings scatter. Where the call is inconclusive, the potency comes from a doubtful curve fit.

molecular target: DNA dC->dU-editing enzyme APOBEC-3G (Homo sapiens) (UniProt Q9HC16); test: qHTS for Inhibitors of Vif-A3G Interactions: qHTS; conditions: HeLa A3G-eYFP + Vif (tagged APOBEC3G with the HIV-1 protein that degrades it), YFP fluorescence, overnight; series mostly up to 46.1 µM; activity, negative = active: at the top concentration; also: nearly all actives have a fitted effect of over 60% in size;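 as to activity, negative = active: hits raise eYFP signal because A3G escapes Vif-driven loss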
Summary of the method: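 Read-out is eYFP fluorescence (Ex 488/Em 500-530) from Vif-expressing HeLa A3G-eYFP cells; more signal means A3G escaped Vif-mediated degradation. Cells plated overnight, compound pinned in, incubated overnight at 37 deg C.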
% is scaled to controls: 0 for no effect and ±100 for the full control effect; potency is read from the fitted curve at half-maximal effect; tags tell the direction and shape of the fitted curve.

UniProt Q9HC16, sequence (Q9HC16 whole entry, looked up): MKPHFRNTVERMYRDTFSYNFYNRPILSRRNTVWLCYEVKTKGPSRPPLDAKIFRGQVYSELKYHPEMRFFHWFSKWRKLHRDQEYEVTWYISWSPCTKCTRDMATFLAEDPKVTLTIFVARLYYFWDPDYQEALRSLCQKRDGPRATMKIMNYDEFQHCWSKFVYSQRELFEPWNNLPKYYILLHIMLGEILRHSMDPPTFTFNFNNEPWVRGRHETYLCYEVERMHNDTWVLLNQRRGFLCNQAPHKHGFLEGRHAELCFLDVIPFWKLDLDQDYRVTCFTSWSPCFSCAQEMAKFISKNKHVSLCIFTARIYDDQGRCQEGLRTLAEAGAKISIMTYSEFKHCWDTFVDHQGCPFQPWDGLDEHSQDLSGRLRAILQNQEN

SMILES	Potency	activity, negative = active
O=C(Nc1ccccc1)Oc1cccc2cccnc12	inconclusive: 28.2 µM [inhibitor, partial curve, poor fit]	
CC1(C(=O)NCCc2ccccc2)Cc2c(-c3cccc(C(N)=O)c3)ccnc2O1 (stereo not drawn)	inconclusive: 11.2 µM [inhibitor, partial curve, poor fit]	
CC(=O)Nc1cccc(-c2ccnc3c2CC(C(=O)Nc2ccc(Cl)cc2)O3)c1 (stereo not drawn)	inconclusive: 7.08 µM [inhibitor, partial curve, poor fit]	
Cc1ccc(-c2cc(C(=O)N/N=C/C(Br)=C/c3ccccc3)n[nH]2)o1	inconclusive: 5.62 µM [inhibitor, full curve]	
Oc1ccc(Nc2nc(-c3ccccc3O)nc3ccccc23)cc1	inconclusive: 35.5 µM [inhibitor, single point]	
O=C(NCc1cc(C(F)(F)F)ccc1Cl)c1cccc2c1C(=O)c1ccc(N3CCC(N4CCCCC4)CC3)cc1S2(=O)=O	inconclusive: 17.8 µM [inhibitor, single point]	
COc1ccc(CCNC(=O)CS(=O)Cc2nc(-c3ccccc3F)oc2C)cc1OC (stereo not drawn)	inactive	
Cc1ccc(C2=NN(S(C)(=O)=O)C(c3ccc4c(c3)OCO4)C2)cc1 (stereo not drawn)	inconclusive: 31.6 µM [inhibitor, single point]	
O=C(N/N=C/c1cc(Br)cs1)c1ccc2c(c1)OCCO2	inconclusive: 6.31 µM [inhibitor, full curve]	
COc1cc2c(cc1OC)-c1cc(NC3CCCCC3)nc(=O)n1CC2		inactive: -5.72%
Cc1nc(-c2ccccc2)sc1C(=O)NN	inconclusive: 3.55 µM [inhibitor, full curve]	
CCN(CC)c1ccc2c(C)c(-c3ccc(N)cc3)c(=O)oc2c1		inactive: -6.14%
COc1ccc(NCC(=O)n2c(C)c(C)c3ccccc32)cc1	inconclusive: 10 µM [inhibitor, partial curve]	
C=CCOc1c(Cl)cc(C2NC(=O)NC(C)=C2C(=O)OC)cc1Cl (stereo not drawn)	inconclusive: 22.4 µM [inhibitor, single point]	
Brc1c(NC2=NCCN2)ccc2nccnc12		inactive: 3.34%
COc1ccccc1-n1cnc2cc(NCc3cccs3)ccc21	inconclusive: 0.562 µM [inhibitor, full curve, poor fit]	
Cc1cccc(N=C2NC(=O)/C(=C/C=C/c3ccco3)S2)c1	inconclusive: 3.16 µM [inhibitor, full curve]	
CC(C)(C)OC(=O)NCc1ccc(NC(=O)c2nc[nH]c2C(=O)NCCNC(=O)c2[nH]cnc2C(=O)Nc2ccc(CNC(=O)OC(C)(C)C)cc2)cc1	inconclusive: 11.2 µM [inhibitor, partial curve, poor fit]	
